“And” between values parts separate entries of the source, which are not always exact repeats. Equal entries are not always repeated. This is one part of the list. The main result of the screen is listed elsewhere. These columns were measured beside it and carry no call.

The record followed here is PubChem BioAssay AID1745853 (National Center for Advancing Translational Sciences (NCATS), 2022).

Assay in all cases: Primary Screen for Target Class Profiling of Small Molecule Inhibitors of Methyltransferases
Test [1] addresses Glycine N-methyltransferase (Homo sapiens) (UniProt Q14749). The note with it: purified enzyme, MTase-Glo SAH luminescence; measured here: GNMT inhibition; at 40 µM; stronger effect = lower value. The method, boiled down:
(§1)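 Each enzyme was assayed with SAM and its substrate. SAH formation detected by MTase-Glo luminescence; single-point 40 uM screen[…].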

The target of test [2] is Guanidinoacetate N-methyltransferase (Homo sapiens) (UniProt Q14353). The settings on record: purified enzyme, MTase-Glo SAH luminescence; measured here: GAMT inhibition; at 40 µM; stronger effect = lower value. In outline:
as §1

Test [3] has as its target Histamine N-methyltransferase (Homo sapiens) (UniProt P50135). The note with it: purified enzyme, MTase-Glo SAH luminescence; measured here: HNMT inhibition; at 40 µM; stronger effect = lower value. In outline:
as §1

In test [4] the target is Nicotinamide N-methyltransferase (Homo sapiens) (UniProt P40261). The settings on record: purified enzyme, MTase-Glo SAH luminescence; measured here: NNMT inhibition; at 40 µM; stronger effect = lower value. The method, boiled down: as §1
Test [5] concerns the target Phenylethanolamine N-methyltransferase (Homo sapiens) (UniProt P11086). The note with it: purified enzyme, MTase-Glo SAH luminescence; measured here: PNMT inhibition; at 40 µM; stronger effect = lower value. The method, boiled down:
as §1
% is scaled to controls: 0 for no effect and ±100 for the full control effect.

As for `COC(=O)c1cc2n(n1)CC(C)(C(=O)NC1CCCCC1)N(c1ccc(C)cc1)C2=O` (stereo not drawn), the activity change, negative = inhibition in test [1] amounted to 4.96%; in test [2], 0.099%; in test [3], 7.7%; in test [4], 4.41%; in test [5] it was 5.6%.

For the compound `CCCn1cnc2c(NCc3ccccc3)nc(N[C@H](CC)CO)nc21`, the activity change, negative = inhibition in test [1] is 1.66%; in test [2], 4.83%; in test [3] it was 13.6%; in test [4], -14.8%; in test [5], 2.92%.

For the compound `O=C(c1cc(F)ccc1F)N1CCCC(Cc2noc(-c3ccccc3)n2)C1` (stereo not drawn), the activity change, negative = inhibition in test [1] is -2.4%; in test [2], 1.49%; in test [3], 0.27%; in test [4], -5.18%; in test [5] it was -3.61%.

For the compound `O=c1cc(N2CCOCC2)nc2c3ccccc3ccn12`, the activity change, negative = inhibition in test [1] is -28.2%; in test [2] it was -9.19%; in test [3] it was -29.5%; in test [4] it was -28.4%; in test [5] it was -17.9%.

With `NC(=O)c1cccc2cn(-c3ccc([C@@H]4CCCNC4)cc3)nc12`, the activity change, negative = inhibition in test [1] is -7.4%; in test [2] it was -1.09% and -6.43%; in test [3], -62.1%; in test [4] it was -59.8% and -25.9%; in test [5], -16.2% and -32.3%.

With `O=c1[nH]c2cc([N+](=O)[O-])c([N+](=O)[O-])cc2[nH]c1=O`, the activity change, negative = inhibition in test [1] was -1.61%; in test [2] it was 10.5%; in test [3], 9.46%; in test [4] it was -4.81%; in test [5], 2.78%.

In the case of `COc1ccc(Nc2cnc3ccc(-c4ccc(F)cc4)nn23)cn1`, the activity change, negative = inhibition in test [1] is -10.4%; in test [2], -4.63%; in test [3] it was -9.96%; in test [4], -3.08%; in test [5], -20.5%.

In the case of `CCNC(=O)NC1(CCOC)CCN(S(=O)(=O)c2cc(OC)ccc2OC)CC1`, the activity change, negative = inhibition was determined as 4.19% in test [1]; 0% in test [2]; 14.4% in test [3]; 4.92% in test [4]; 8.58% in test [5].

As to `CC(C)[C@@H]1CN(C(=O)CCCn2cncn2)C[C@H]1NS(=O)(=O)N(C)C`, the activity change, negative = inhibition was -4.22% in test [1]; -8.96% in test [2]; -1.94% in test [3]; -16.5% in test [4]; -12.7% in test [5].

Consider `COC(=O)c1cc2n(n1)CC(C)(C(=O)NC1CCCC1)N(Cc1ccccc1OC)C2=O` (stereo not drawn), for which the activity change, negative = inhibition was -6.41% in test [1]; -0.425% in test [2]; 0.832% in test [3]; -3.49% in test [4]; -2.02% in test [5].

For the compound `COc1ccc(-n2c(=O)[nH]c3cc(C(=O)NCc4ccc(Cl)cc4)sc3c2=O)nc1OC`, the activity change, negative = inhibition in test [1] is -8.98%; in test [2], -1.6%; in test [3], 7.65%; in test [4] it was -36.7%; in test [5], 2.85%.

For the compound `COC1OC(=O)C2=C1C1(C)CCCC(C)(C)C1CC2O` (stereo not drawn), the activity change, negative = inhibition is 4.24% in test [1]; 3.6% in test [2]; 10.3% in test [3]; -11.2% in test [4]; 3.66% in test [5].

For `O=C(CCc1ccc(O)cc1)c1c(O)cc(O)cc1O`, the activity change, negative = inhibition is -13.4% in test [1]; 2.13% in test [2]; 1.2% in test [3]; -10.8% in test [4]; -3.34% in test [5].

As to `C=CC1(C)CC2CCC3C(C)(C(=O)O)CCCC3(C)C2=CC1=O` (stereo not drawn), the activity change, negative = inhibition in test [1] is 5.63%; in test [2] it was 4.28%; in test [3] it was 11.4%; in test [4], -9.85%; in test [5], 0.55%.

Turning to `N#Cc1cccc(-c2c[nH]c3ncnc(N4CCOCC4)c23)c1`, the activity change, negative = inhibition was -81.1% in test [1]; -58.2% in test [2]; -88% in test [3]; -73.1% in test [4]; -69.4% in test [5].

With `COc1cc(OC)cc(-c2onc(C)c2C(=O)NCc2ccccc2C)c1`, the activity change, negative = inhibition in test [1] is -5.78%; in test [2], -5.26%; in test [3], -3.95%; in test [4] it was -11.2%; in test [5] it was -5.95%.

As for `O=C(NCCCc1ccccc1)C1CCCCN1Cc1ccc(-c2ccsc2)cc1` (stereo not drawn), the activity change, negative = inhibition is -6.74% in test [1]; -9.65% in test [2]; -5.19% in test [3]; -10.1% in test [4]; -8.89% in test [5].

Regarding `Oc1cccc(Nc2ncnc3sc4c(c23)CCCC4)c1`, the activity change, negative = inhibition is -9.7% in test [2], -49.7% in test [4] and -23.1% in test [5].

Take `O=C1NC2(CCN(C(=O)c3cccnc3)C2)Oc2ccccc21` (stereo not drawn): the activity change, negative = inhibition in test [1] was -5%; in test [2], -8.12%; in test [3], -1.8%; in test [4] it was -10.8%; in test [5], -9.41%.

As to `Cc1noc(C)c1Cc1ccc(C(=O)N2CC(N(C)Cc3cccnc3)C2)o1`, the activity change, negative = inhibition in test [1] was -6.29%; in test [2] it was -0.427%; in test [3], -0.819%; in test [4] it was -6.76%; in test [5], -1.29%.

With `CN(C)C(=O)c1ccc(OC2CCN(C(=O)c3ccc(C(F)(F)F)cc3)CC2)nc1`, the activity change, negative = inhibition in test [1] was -3.07%; in test [2], 6.41%; in test [3] it was 2%; in test [4] it was -3.97%; in test [5], 12.9%.

Take `CC(=O)C1=C(O)C=C2Oc3c(C(C)=O)c(O)c(C)c(O)c3[C@]2(C)C1=O`: the activity change, negative = inhibition in test [1] was -1.39%; in test [2], 7.75%; in test [3], 8.2%; in test [4] it was -5.81%; in test [5], 9.57%.

On to `O=C(NC1CCCC1)c1cc(-c2cccc(C(F)(F)F)c2)c2cccn2n1`, for which the activity change, negative = inhibition is -10.1% in test [1]; -10.6% in test [2]; -6.44% in test [3]; -11.8% in test [4]; -7.6% in test [5].

Turning to `Cc1nc(N)ncc1C(=O)N(C)Cc1cn[nH]c1-c1ccccc1`, the activity change, negative = inhibition is 6.64% in test [1]; 0.139% in test [2]; 0.606% in test [3]; 2.86% in test [4]; -12.6% in test [5].

As to `COc1cccc(CNC(=O)N2Cc3c(sc4c3CCCC4)-n3cccc3C2c2cccc(F)c2)c1` (stereo not drawn), the activity change, negative = inhibition in test [1] was -5.08%; in test [2], 1.26%; in test [3] it was 1.25%; in test [4], -10.9%; in test [5] it was -0.756%.

With `Cc1cccc(C2c3cccn3-c3sc4c(c3CN2C(=O)NC(C)C)CCCC4)c1` (stereo not drawn), the activity change, negative = inhibition in test [1] was -9.17%; in test [2], 7.44%; in test [3], 2.84%; in test [4], -14.8%; in test [5] it was -1.73%.

With `CC(=O)OCC1=C[C@@H]2OC(=O)C3=CO[C@@H](O[C@@H]4O[C@H](CO)[C@@H](O)[C@H](O)[C@H]4O)[C@H]1[C@@H]32`, the activity change, negative = inhibition is 4.38% in test [1]; 5.97% in test [2]; 7.56% in test [3]; -7.61% in test [4]; 2.64% in test [5].

With `CC1(C(=O)NC2CCCCCC2)Cn2c(ccc2-c2ccco2)C(=O)N1CCc1ccccc1` (stereo not drawn), the activity change, negative = inhibition is -8.7% in test [1]; 3.22% in test [2]; -4.58% in test [3]; -10.1% in test [4]; -3.85% in test [5].

For the compound `Clc1ccc2c(c1)C1C=CCC1C(c1cccc3ccccc13)N2` (stereo not drawn), the activity change, negative = inhibition in test [1] is -12%; in test [2], -4.72%; in test [3], -10.7%; in test [4] it was -15.6%; in test [5] it was -12%.

For the compound `Cc1ccc(F)c(OC2(C(=O)O)CCN(S(=O)(=O)c3cnn(C)c3)CC2)c1`, the activity change, negative = inhibition was 0.617% in test [1]; -0.105% in test [2]; 0.293% in test [3]; 4.42% in test [4]; 2.48% in test [5].

Consider `O=C(/C=C/N1C[C@@H]2C[C@@H]1CN2c1ccccn1)c1ccccc1O`, for which the activity change, negative = inhibition in test [1] is -4.3%; in test [2], -1.66%; in test [3] it was 2.65%; in test [4], -17.1%; in test [5] it was -2.46%.
